One assay deals with T1, human 4-1BB (human, UniProt Q07011 24-255).
T1 construct: whole, on cells; also called CD137; TNFRSF9
Nature of the assay: flow cytometry, CHO-K1/hu 4-1BB cells.

Assay [1] has as its target T2, human CTLA4 on CHO-K1/hCTLA4 cells (human, UniProt P16410 36-223).
T2 construct: whole, on cells; CHO-K1 cell line highly expressing human CTLA4; also called human CTLA4 cell
The experiment in a line: flow cytometry on CHO-K1/hCTLA4 cells, Experiment 2.

For assay [2], the target named is T3, biotinylated human CTLA4-Fc protein (ACRO Biosystems, #CT4-H82F3) (human, UniProt P16410 36-161, biotinylated).
T3 construct: Bought protein; also called human CTLA4 protein
The experiment in a line: competition ELISA: coated human B7-1-Fc, biotinylated human CTLA4-Fc, Experiment 2.

Eight molecules from patent US20230322953A1 (HARBOUR BIOMED SHANGHAI, published 2023) can be followed below.

Chain of human 4-1BB (Q07011 24-255): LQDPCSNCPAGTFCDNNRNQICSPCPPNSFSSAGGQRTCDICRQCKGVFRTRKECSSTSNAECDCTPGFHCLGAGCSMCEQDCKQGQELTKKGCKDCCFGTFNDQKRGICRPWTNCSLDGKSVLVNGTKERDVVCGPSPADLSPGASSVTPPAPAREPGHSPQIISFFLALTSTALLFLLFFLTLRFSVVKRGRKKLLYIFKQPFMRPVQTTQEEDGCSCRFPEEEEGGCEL

B1: PR004279 (bispecific antibody)
chain 1: QVQLVESGGGVVQPGRSLRLSCAASGFTFRSFGMHWVRQAPGKGLEWVAVISYDASNEYYADSVKGRFIISRDNSKDTLYLQMNSLRAGDTAVYYCAKGGGLRWYFAYWGQGTLVTVSSASTKGPSVFPLAPSSKSTSGGTAALGCLVKDYFPEPVTVSWNSGALTSGVHTFPAVLQSSGLYSLSSVVTVPSSSLGTQTYICNVNHKPSNTKVDKKVEPKSC
chain 2: EIVMTQSPATLSVSPGERATLSCRASQSISSNLGWYQQKPGQAPRLLIYGASTRATGIPARFSGSGSGTEFTLTISSLQSEDFAVYYCQQYQSWPPLTFGGGTKVEIKRTVAAPSVFIFPPSDEQLKSGTASVVCLLNNFYPREAKVQWKVDNALQSGNSQESVTEQDSKDSTYSLSSTLTLSKADYEKHKVYACEVTHQGLSSPVTKSFNRGECEPKSSDKTHTPPPPPEVQLVESGGGVVQPGGSLRLSCAASGFTFSNYAMTWVRQAPEKGLEWVSSISGSGVSTYYADSVKGRFTISRDNSKNTLYLQMTRLTAEDTAVYFCAKEGSSETDDHYYNVDVWGQGTTVTVSS[human IgG1 Fc with changes not given here]
notes: PR002408 Fab, PR001760 VH, L1 H1_15, L2 human IgG1 hinge (C220S), human IgG1 (L234A, L235A); also called B7H4x4-1BB bispecific antibody, Fab-HCAb symmetric structure (1)
On to B1, for which, in the assay with human 4-1BB, it took 0.503 nM to reach a half-maximal effect (EC50) and the “Maximum MFI” value worked out at 105000.

B2: PR005189 (bispecific antibody)
chain 1: QVQLVESGGGVVQPGRSLRLSCAASGFTFRSFGMHWVRQAPGKGLEWVAVISYDASNEYYADSVKGRFIISRDNSKDTLYLQMNSLRAGDTAVYYCAKGGGLRWYFAYWGQGTLVTVSSASTKGPSVFPLAPSSKSTSGGTAALGCLVKDYFPEPVTVSWNSGALTSGVHTFPAVLQSSGLYSLSSVVTVPSSSLGTQTYICNVNHKPSNTKVDKKVEPKSC
chain 2: EIVMTQSPATLSVSPGERATLSCRASQSISSNLGWYQQKPGQAPRLLIYGASTRATGIPARFSGSGSGTEFTLTISSLQSEDFAVYYCQQYQSWPPLTFGGGTKVEIKRTVAAPSVFIFPPSDEQLKSGTASVVCLLNNFYPREAKVQWKVDNALQSGNSQESVTEQDSKDSTYSLSSTLTLSKADYEKHKVYACEVTHQGLSSPVTKSFNRGECEVQLVESGGGVVQPGGSLRLSCAASGFTFSNYAMTWVRQAPEKGLEWVSSISGSGVSTYYADSVKGRFTISRDNSKNTLYLQMTRLTAEDTAVYFCAKEGSSETDDHYYNVDVWGQGTTVTVSS[human IgG1 Fc with changes not given here]
notes: PR002408 Fab, PR001760 VH, no first linker, L2 human IgG1 hinge (C220S), human IgG1 (L234A, L235A); also called B7H4x4-1BB bispecific antibody, Fab-HCAb symmetric structure (1)
Turning to B2, in the assay with human 4-1BB, the EC50 is 4.25 nM and the “Maximum MFI” value is 92400.

B3: HER2xCTLA4 bispecific antibody molecule PR001589 (bispecific antibody, human IgG1, kappa)
light: EVQLVESGGGLIQPGGSLRLSCAVSGFTVSKNYMSWVRQAPGKGLEWVSVVYSGGSKTYADSVKGRFTISRDNSKNTLYLQMNSLRAEDTAVYYCARAVPHSPSSFDIWGQGTMVTVSSKLEPKSSDKTHTPPPPPASDIQMTQSPSSLSASVGDRVTITCKASQDVSIGVAWYQQKPGKAPKLLIYSASYRYTGVPSRFSGSGSGTDFTLTISSLQPEDFATYYCQQYYIYPYTFGQGTKVEIKRTVAAPSVFIFPPSDEQLKSGTASVVCLLNNFYPREAKVQWKVDNALQSGNSQESVTEQDSKDSTYSLSSTLTLSKADYEKHKVYACEVTHQGLSSPVTKSFNRGEC
heavy: EVQLVESGGGLVQPGGSLRLSCAASGFTFTDYTMDWVRQAPGKGLEWVADVNPNSGGSIYNQRFKGRFTLSVDRSKNTLYLQMNSLRAEDTAVYYCARNLGPSFYFDYWGQGTLVTVSS[human IgG1 constant region not given here]
notes: PR000672 IgG (pertuzumab analog), PR000184 VH at N-terminus of light chain; linker KL-H1_15-AS; Fc human IgG1
In the case of B3, in assay [1], the concentration for a half-maximal effect (EC50) came to 9.39 nM and the “Maximum MFI” value came to 1870 MFI. Besides, in assay [2], the IC50 stood at 2.59 nM.

B4: PR003487 (bispecific antibody, human IgG1, kappa)
light: EIVMTQSPATLSVSPGERATLSCRASQSISSNLGWYQQKPGQAPRLLIYGASTRATGIPARFSGSGSGTEFTLTISSLQSEDFAVYYCQQYQSWPPLTFGGGTKVEIKRTVAAPSVFIFPPSDEQLKSGTASVVCLLNNFYPREAKVQWKVDNALQSGNSQESVTEQDSKDSTYSLSSTLTLSKADYEKHKVYACEVTHQGLSSPVTKSFNRGEC
heavy: QVQLVESGGGVVQPGRSLRLSCAASGFTFRSFGMHWVRQAPGKGLEWVAVISYDASNEYYADSVKGRFIISRDNSKDTLYLQMNSLRAGDTAVYYCAKGGGLRWYFAYWGQGTLVTVSSASTKGPSVFPLAPSSKSTSGGTAALGCLVKDYFPEPVTVSWNSGALTSGVHTFPAVLQSSGLYSLSSVVTVPSSSLGTQTYICNVNHKPSNTKVDKKV[human IgG1 Fc with changes not given here]EPKSSDKTHTPPPPPRTEVQLVESGGGVVQPGGSLRLSCAASGFTFSNYAMTWVRQAPEKGLEWVSSISGSGVSTYYADSVKGRFTISRDNSKNTLYLQMTRLTAEDTAVYFCAKEGSSETDDHYYNVDVWGQGTTVTVSSEVQLVESGGGVVQPGGSLRLSCAASGFTFSNYAMTWVRQAPEKGLEWVSSISGSGVSTYYADSVKGRFTISRDNSKNTLYLQMTRLTAEDTAVYFCAKEGSSETDDHYYNVDVWGQGTTVTVSS
notes: PR002408 IgG with two PR001760 VH in tandem at C-terminus of heavy chain (first linker H1_15-RT, second none), human IgG1 (L234A, L235A); also called B7H4x4-1BB bispecific antibody, IgG-VH(2) hexavalent symmetric structure (7)
For the molecule B4, in the assay with human 4-1BB, a half-maximal response (EC50) required 0.755 nM and the “Maximum MFI” value was determined as 95700.

B5: PR007165 (bispecific antibody, human IgG1)
light: EIVMTQSPATLSVSPGERATLSCRASQSISSNLGWYQQKPGQAPRLLIYGASTRATGIPARFSGSGSGTEFTLTISSLQSEDFAVYYCQQYQSWPPLTFGGGTKVEIKRTVAAPSVFIFPPSDEQLKSGTASVVCLLNNFYPREAKVQWKVDNALQSGNSQESVTEQDSKDSTYSLSSTLTLSKADYEKHKVYACEVTHQGLSSPVTKSFNRGEC
heavy: QVQLVESGGGVVQPGRSLRLSCAASGFTFRSFGMHWVRQAPGKGLEWVAVISYDASNEYYADSVKGRFIISRDNSKDTLYLQMNSLRAGDTAVYYCAKGGGLRWYFAYWGQGTLVTVSSASTKGPSVFPLAPSSKSTSGGTAALGCLVKDYFPEPVTVSWNSGALTSGVHTFPAVLQSSGLYSLSSVVTVPSSSLGTQTYICNVNHKPSNTKVDKKVEPKSCEVQLVESGGGVVQPGGSLRLSCAASGFTFSNYAMTWVRQAPEKGLEWVSSISGSGVSTYYADSVKGRFTISRDNSKNTLYLQMTRLTAEDTAVYFCAKEGSSETDDHYYNVDVWGQGTTVTVSS[human IgG1 Fc with changes not given here]
notes: PR002408 Fab, PR001760 VH, no first linker, L2 human IgG1 hinge (C220S), human IgG1 (L234A, L235A); also called B7H4x4-1BB bispecific antibody, Fab-HCAb symmetric structure (2)
In the case of B5, in the assay with human 4-1BB, the EC50 is 4 nM and the “Maximum MFI” value came out at 71200.

B6: PR003488 (bispecific antibody, human IgG1, kappa)
light: EIVMTQSPATLSVSPGERATLSCRASQSISSNLGWYQQKPGQAPRLLIYGASTRATGIPARFSGSGSGTEFTLTISSLQSEDFAVYYCQQYQSWPPLTFGGGTKVEIKRTVAAPSVFIFPPSDEQLKSGTASVVCLLNNFYPREAKVQWKVDNALQSGNSQESVTEQDSKDSTYSLSSTLTLSKADYEKHKVYACEVTHQGLSSPVTKSFNRGEC
heavy: QVQLVESGGGVVQPGRSLRLSCAASGFTFRSFGMHWVRQAPGKGLEWVAVISYDASNEYYADSVKGRFIISRDNSKDTLYLQMNSLRAGDTAVYYCAKGGGLRWYFAYWGQGTLVTVSSASTKGPSVFPLAPSSKSTSGGTAALGCLVKDYFPEPVTVSWNSGALTSGVHTFPAVLQSSGLYSLSSVVTVPSSSLGTQTYICNVNHKPSNTKVDKKV[human IgG1 Fc with changes not given here]EPKSSDKTHTPPPPPRTEVQLVESGGGVVQPGGSLRLSCAASGFTFSNYAMTWVRQAPEKGLEWVSSISGSGVSTYYADSVKGRFTISRDNSKNTLYLQMTRLTAEDTAVYFCAKEGSSETDDHYYNVDVWGQGTTVTVSSGGGGSEVQLVESGGGVVQPGGSLRLSCAASGFTFSNYAMTWVRQAPEKGLEWVSSISGSGVSTYYADSVKGRFTISRDNSKNTLYLQMTRLTAEDTAVYFCAKEGSSETDDHYYNVDVWGQGTTVTVSS
notes: PR002408 IgG with two PR001760 VH in tandem at C-terminus of heavy chain (first linker H1_15-RT, second GS_5), human IgG1 (L234A, L235A); also called B7H4x4-1BB bispecific antibody, IgG-VH(2) hexavalent symmetric structure (7)
B6: in the assay with human 4-1BB, the EC50 turned out to be 0.773 nM and the “Maximum MFI” value amounted to 98200.

B7: HER2xCTLA4 bispecific antibody molecule PR001588 (bispecific antibody, human IgG1, kappa)
light: DIQMTQSPSSLSASVGDRVTITCKASQDVSIGVAWYQQKPGKAPKLLIYSASYRYTGVPSRFSGSGSGTDFTLTISSLQPEDFATYYCQQYYIYPYTFGQGTKVEIKRTVAAPSVFIFPPSDEQLKSGTASVVCLLNNFYPREAKVQWKVDNALQSGNSQESVTEQDSKDSTYSLSSTLTLSKADYEKHKVYACEVTHQGLSSPVTKSFNRGEC
heavy: EVQLVESGGGLIQPGGSLRLSCAVSGFTVSKNYMSWVRQAPGKGLEWVSVVYSGGSKTYADSVKGRFTISRDNSKNTLYLQMNSLRAEDTAVYYCARAVPHSPSSFDIWGQGTMVTVSSKLEPKSSDKTHTPPPPPRTEVQLVESGGGLVQPGGSLRLSCAASGFTFTDYTMDWVRQAPGKGLEWVADVNPNSGGSIYNQRFKGRFTLSVDRSKNTLYLQMNSLRAEDTAVYYCARNLGPSFYFDYWGQGTLVTVSS[human IgG1 constant region not given here]
notes: HER2 IgG PR000672 (pertuzumab analog), PR000184 VH at N-terminus of heavy chain; linker KL-H1_15-RT; Fc human IgG1
Take B7: in assay [1], the concentration giving a half-maximal response (EC50) was 7.26 nM and the “Maximum MFI” value amounted to 2170 MFI. Besides, in assay [2], the 50% inhibitory concentration (IC50) was found to be 2.2 nM.

B8: HER2xCTLA4 bispecific antibody molecule PR001591 (bispecific antibody, human IgG1, kappa)
light: DIQMTQSPSSLSASVGDRVTITCKASQDVSIGVAWYQQKPGKAPKLLIYSASYRYTGVPSRFSGSGSGTDFTLTISSLQPEDFATYYCQQYYIYPYTFGQGTKVEIKRTVAAPSVFIFPPSDEQLKSGTASVVCLLNNFYPREAKVQWKVDNALQSGNSQESVTEQDSKDSTYSLSSTLTLSKADYEKHKVYACEVTHQGLSSPVTKSFNRGEC
heavy: EVQLVESGGGLIQPGGSLRLSCAVSGFTVSKNYMSWVRQAPGKGLEWVSVVYSGGSKTYADSVKGRFTISRDNSKNTLYLQMNSLRAEDTAVYYCARAVPHSPSSFDIWGQGTMVTVSSKLEPKSSDKTHTPPPPPRTEVQLVESGGGLVQPGGSLRLSCAASGFTFTDYTMDWVRQAPGKGLEWVADVNPNSGGSIYNQRFKGRFTLSVDRSKNTLYLQMNSLRAEDTAVYYCARNLGPSFYFDYWGQGTLVTVSSASTKGPSVFPLAPSSKSTSGGTAALGCLVKDYFPEPVTVSWNSGALTSGVHTFPAVLQSSGLYSLSSVVTVPSSSLGTQTYICNVNHKPSNTKVDKKV[human IgG1 Fc with changes not given here]
notes: PR000672 IgG (pertuzumab analog), PR000184 VH at N-terminus of heavy chain; linker KL-H1_15-RT; Fc human IgG1 (S239D, I332E)
Take B8: in assay [1], it took 5.15 nM to reach a half-maximal effect (EC50) and the “Maximum MFI” value was determined as 2070 MFI. The molecule also came in with an IC50 in assay [2] of 2.7 nM.
